According to PubChem BioAssay AID504332 (National Center for Advancing Translational Sciences (NCATS), 2011):
Hit rate of the full screen: of about 350,000 compounds, about 31,000 (8.9%) were called active. This list was built around the results that the source calls inconclusive (neither active nor inactive); the mix of calls is not that of the screen. Calls come from the whole dose curve; as a rule, active = well fitted inhibition curve with a large enough effect; inconclusive = small, poorly fitted or top-dose-only effect; inactive = no such curve, though single readings can be large or run the other way. Where the call is inconclusive, the potency comes from a doubtful curve fit.

Molecular target: Histone-lysine N-methyltransferase EHMT2 (Homo sapiens) (UniProt Q96KQ7)
Test: qHTS Assay for Inhibitors of Histone Lysine Methyltransferase G9a; note: nearly all actives have a fitted effect of over 75% in size
Conditions: G9a H3K9 monomethylation, AlphaScreen, 2 h; activity, negative = inhibition: at 59 µM (top of the series) unless noted
Summary of the method: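 Compounds were preincubated with 20 nM G9a for 15 min, after which biotinylated H3K9 peptide (500 nM) and SAM (20 uM) started a 2 h room-temperature reaction. Monomethylated product was quantified by antibody-based AlphaScreen chemiluminescence.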
% is set by controls: 0 for no effect and ±100 for the full control effect; potency is the fitted concentration of half-maximal effect; tags give direction and shape of the fitted curve.

UniProt Q96KQ7, sequence (Q96KQ7 whole entry, looked up): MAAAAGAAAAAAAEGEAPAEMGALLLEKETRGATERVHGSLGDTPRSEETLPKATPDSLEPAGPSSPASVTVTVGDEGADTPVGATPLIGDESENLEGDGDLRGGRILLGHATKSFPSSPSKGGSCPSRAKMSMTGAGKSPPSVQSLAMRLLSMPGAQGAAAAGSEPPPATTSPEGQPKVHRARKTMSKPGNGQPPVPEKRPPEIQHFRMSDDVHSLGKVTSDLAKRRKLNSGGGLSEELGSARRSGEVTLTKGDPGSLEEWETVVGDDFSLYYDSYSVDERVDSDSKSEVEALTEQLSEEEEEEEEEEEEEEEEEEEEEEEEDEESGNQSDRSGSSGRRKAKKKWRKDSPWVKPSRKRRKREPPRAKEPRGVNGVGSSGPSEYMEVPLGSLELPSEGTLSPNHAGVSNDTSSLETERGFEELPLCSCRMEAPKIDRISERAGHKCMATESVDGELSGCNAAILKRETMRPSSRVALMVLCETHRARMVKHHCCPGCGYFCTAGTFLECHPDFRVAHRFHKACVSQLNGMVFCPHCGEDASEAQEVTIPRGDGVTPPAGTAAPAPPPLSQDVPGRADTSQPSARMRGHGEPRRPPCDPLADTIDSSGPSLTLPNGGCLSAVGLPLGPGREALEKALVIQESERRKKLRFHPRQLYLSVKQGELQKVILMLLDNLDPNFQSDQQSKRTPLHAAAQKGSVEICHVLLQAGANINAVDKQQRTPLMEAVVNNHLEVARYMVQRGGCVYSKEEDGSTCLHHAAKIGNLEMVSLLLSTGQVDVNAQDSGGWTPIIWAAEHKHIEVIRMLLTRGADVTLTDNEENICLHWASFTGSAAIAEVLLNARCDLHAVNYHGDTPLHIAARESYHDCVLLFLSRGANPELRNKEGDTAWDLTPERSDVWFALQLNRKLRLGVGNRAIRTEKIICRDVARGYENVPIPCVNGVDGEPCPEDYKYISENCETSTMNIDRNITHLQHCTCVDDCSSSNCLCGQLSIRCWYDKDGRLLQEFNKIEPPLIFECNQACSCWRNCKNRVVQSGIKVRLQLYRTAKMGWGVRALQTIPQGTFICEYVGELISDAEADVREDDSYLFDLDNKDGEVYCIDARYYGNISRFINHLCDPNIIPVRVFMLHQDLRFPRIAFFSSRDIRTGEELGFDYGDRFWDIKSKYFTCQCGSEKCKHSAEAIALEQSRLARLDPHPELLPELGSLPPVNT

SMILES	Potency	activity, negative = inhibition
CC(C)c1ccc(/C=N/N2CCCCC2)cc1	active: 10 µM	–
CCN(C(C)=O)c1nnc(CSc2nc3ccccc3s2)s1	–	inconclusive: -52.9% [inhibitor]
CC[N+]1(CC)CC2CCC(C)(C1)C2(C)C (centres undefined)	inconclusive: 22.4 µM [inhibitor, single point]	–
Nc1scc(-c2ccncc2)c1Cl	inconclusive: 7.94 µM [inhibitor, full curve, poor fit]	–
O=C(CCN1CCCC1)c1cccs1	active: 25.1 µM	–
Cc1ccc(SCc2cc(=O)[nH]c(Nc3nc(C)c4ccc(C)cc4n3)n2)cc1	inconclusive: 3.55 µM [inhibitor, partial curve, poor fit]	–
CC1Cc2cc(S(=O)(=O)CCC(=O)Nc3ccccc3F)ccc2N1C(=O)C1CC1 (centres undefined)	–	inactive: -8.66%
COc1ccc(OCc2nn3c(-c4ccco4)nnc3s2)cc1	inconclusive: 100 µM [inhibitor, single point]	–
CCn1c(N2CCN(CC(=O)c3c(C)n(C)c4ccccc34)CC2)nc2c1c(=O)[nH]c(=O)n2C	inconclusive: 7.94 µM [inhibitor, full curve, poor fit]	–
O=C(CSc1nnnn1-c1ccccc1)c1cc2ccccc2oc1=O	inconclusive: 35.5 µM [inhibitor, partial curve, poor fit]	–
CCNCC(O)COCC(O)CNCC (centres undefined)	–	inconclusive: -57.9% [inhibitor]
COCCCn1c(=N)c(C(=O)NC2CCCC2)cc2c(=O)n3cccc(C)c3nc21	inconclusive: 44.7 µM [inhibitor, partial curve, poor fit]	–
CC(C(=O)Nc1ccc(F)c(F)c1)N1CCN(C)CC1 (centres undefined)	inconclusive: 0.891 µM [inhibitor, single point]	–
O=C(c1ccc(-n2cncn2)c([N+](=O)[O-])c1)N1CCN(S(=O)(=O)c2ccc(Br)cc2)CC1	inconclusive: 89.1 µM [inhibitor, single point]	–
CC1(C)Cc2c(C#N)c(NCCN3CCOCC3)nc(-c3ccco3)c2CO1	–	inactive: -12%
CN(C)CCCN(C(=O)c1ccc(S(=O)(=O)N2CCCC2)cc1)c1nc2ccc(Br)cc2s1	active: 50.1 µM	–
Cc1ccc(C(=O)CSC2=C(C#N)C(c3ccco3)CC(=O)N2)c(C)c1 (centres undefined)	inconclusive: 39.8 µM [inhibitor, single point]	–
Cc1cccc(C(=O)n2nc(C)c(S(=O)(=O)N3CCOCC3)c2C)c1	inconclusive: 31.6 µM [inhibitor, single point]	–
CCOc1cc(/C=C2\SC(=Nc3ccccc3)N(c3ccccc3)C2=O)ccc1OCC(=O)O	inconclusive: 89.1 µM [inhibitor, single point]	–
